Screen size: about 310,000 compounds; about 14,000 (4.5%) showed an effect of 50% or more. Effects have a minus sign here. Some of the results follow.
molecular target: human ether-à-go-go-related gene (hERG) potassium channel (human, UniProt Q12809); assay: primary screen, population patch clamp on CHO cells stably expressing hERG
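Further: peak tail current of the secondary pulse compared with the same well before compound.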

Chain of human ether-à-go-go-related gene (hERG) potassium channel (Q12809 whole entry, looked up): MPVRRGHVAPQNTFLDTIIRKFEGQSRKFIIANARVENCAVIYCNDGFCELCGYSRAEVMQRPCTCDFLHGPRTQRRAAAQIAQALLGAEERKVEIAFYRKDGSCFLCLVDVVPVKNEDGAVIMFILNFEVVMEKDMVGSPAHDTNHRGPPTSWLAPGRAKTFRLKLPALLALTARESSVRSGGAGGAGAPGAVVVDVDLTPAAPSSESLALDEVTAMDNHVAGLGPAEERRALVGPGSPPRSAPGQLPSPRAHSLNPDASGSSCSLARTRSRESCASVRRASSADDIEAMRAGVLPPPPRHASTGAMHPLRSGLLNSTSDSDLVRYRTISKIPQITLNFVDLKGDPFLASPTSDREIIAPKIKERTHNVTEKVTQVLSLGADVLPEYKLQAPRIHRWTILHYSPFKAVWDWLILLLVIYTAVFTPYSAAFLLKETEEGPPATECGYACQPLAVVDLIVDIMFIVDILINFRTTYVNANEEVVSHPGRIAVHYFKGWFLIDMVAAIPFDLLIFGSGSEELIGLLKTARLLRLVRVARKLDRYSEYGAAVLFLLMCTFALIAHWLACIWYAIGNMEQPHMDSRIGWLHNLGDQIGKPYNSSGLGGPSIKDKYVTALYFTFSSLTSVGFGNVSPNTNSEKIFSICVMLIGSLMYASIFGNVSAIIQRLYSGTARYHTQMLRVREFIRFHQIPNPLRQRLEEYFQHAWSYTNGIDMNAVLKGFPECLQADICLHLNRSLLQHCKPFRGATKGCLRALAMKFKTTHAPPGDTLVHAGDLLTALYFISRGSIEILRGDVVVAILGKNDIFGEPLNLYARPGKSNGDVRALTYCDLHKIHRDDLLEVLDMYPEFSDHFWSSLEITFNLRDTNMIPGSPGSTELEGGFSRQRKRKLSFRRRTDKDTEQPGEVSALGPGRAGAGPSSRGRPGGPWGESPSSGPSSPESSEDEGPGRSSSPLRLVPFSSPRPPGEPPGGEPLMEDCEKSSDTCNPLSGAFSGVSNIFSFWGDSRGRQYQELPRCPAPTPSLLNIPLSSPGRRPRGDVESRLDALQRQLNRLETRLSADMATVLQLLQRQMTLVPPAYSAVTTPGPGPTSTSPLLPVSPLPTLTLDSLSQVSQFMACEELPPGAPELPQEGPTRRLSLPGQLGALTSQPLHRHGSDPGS

SMILES	hERG current change (%, negative = inhibition) at 10uM [%]
CCOC(=O)NC(c1ccc(C(C)C)cc1)C(Cl)(Cl)Cl (stereo not drawn)	1.44
Cc1ccc2nc(SC(C)C(=O)N3CCCCC3)[nH]c2c1 (stereo not drawn)	14.7
COc1ccc(OCC(=O)NCCCn2ccnc2)cc1.Cl	6.15
Cc1ccc(CONC(=O)/N=C/N(C)C)cc1	-7.43
c1csc(-c2csc3ncnc(NCCCN4CCOCC4)c23)c1	-16.4
CCCn1nnc(NC(=O)c2ccccc2Cl)n1	6.62
COc1cc(OC)c(OC)cc1/C=C1\C(=O)NC(=O)N(Cc2ccccc2)C1=O	14.7
O=C(COC(=O)Cc1cccc(F)c1)NCCc1ccccc1	1.94
COc1ccc(C2CC(c3ccccc3)=NN2C(=O)CSc2nnnn2-c2cccc(C)c2)cc1 (stereo not drawn)	0.691
O=C(CCCNC(=O)/C(=C/c1ccccc1F)NC(=O)c1ccccc1)OCc1ccccc1	-5.02
Cc1c(C(=O)N2CCCCCC2)c(S(=O)(=O)Nc2cccc(F)c2)c(C)n1C	9.56
Cc1ccnc(SCC(=O)N2CCCc3ccccc32)n1	0.164
Cc1ccc(C(C)NC(=O)C23CC4CC(CC(C4)C2)C3)cc1 (stereo not drawn)	11.4
O=C(CC1c2ccccc2Oc2ccccc21)Nc1ccccc1C(F)(F)F	0.279
CCCn1c(CN2CCN(C(=O)OCC)CC2)nc2cc([N+](=O)[O-])ccc21	-64
O=C(/C=C/c1ccc(Cl)cc1)Nc1ccc(N2CCCCC2)cc1	-0.732
Cc1cc(C)cc(CC2CC(=O)N(c3ccc(Cl)cn3)C2=O)c1 (stereo not drawn)	-17.2
Cc1ccc(-n2nnnc2SCc2nnc(-c3ccccc3Br)o2)c(C)c1	12.2
CC(=O)c1cc(-c2ccccc2)n(CC(=O)Nc2cccc(C)c2C)c1C	2.16
CCOC(CCNC(=O)c1cn(CCOC)c(=O)c2c1c1ccccc1n2C)OCC	5.72
CSc1ccccc1NC(=O)CN(C)C(C)C(=O)NC(=O)NC1CCCCC1 (stereo not drawn)	-20.5
CC1(C)C(=O)NCCN1C(=O)CC1C(=O)NCCN1Cc1cccc(C(F)(F)F)c1 (stereo not drawn)	10.3
CN(c1ccccc1)S(=O)(=O)c1ccc(C(=O)NCCc2ccc(F)cc2)cc1	-21.1

SMILES	hERG current change (%, negative = inhibition) at 10uM [%]
CCOC(=O)N1CCN(S(=O)(=O)c2ccc(C)cc2)C1c1ccc(OC)cc1 (stereo not drawn)	-11.9
O=C(CN1C(=O)NC2(CCCC2)C1=O)N1CCN(S(=O)(=O)c2ccccc2[N+](=O)[O-])CC1	7.61
Nc1nc2ccc([N+](=O)[O-])cc2[nH]1	20.6
CCN(CC(=O)NCc1ccco1)S(=O)(=O)c1ccc(OC)cc1	3.31
Cc1nc2c(-c3ccc(Cl)cc3)c(C)[nH]n2c(=O)c1Cc1ccccc1	4.24
CN1CCN(C(=O)/C(=C/c2ccc([N+](=O)[O-])cc2)NC(=O)c2ccccc2)CC1	-81.5
S=C(NCCc1ccccc1)N1CCCCC1	14.4
Cc1cccc(NC(=O)CCn2cnnn2)c1	15.1
O=C(c1ccccc1)c1cc([N+](=O)[O-])ccc1N1CCOCC1	-30.7
Cn1c(=O)cc(OCC(=O)NCCc2ccc(Cl)cc2)c2ccccc21	-28.5
Cc1ccc(C(=O)N(C)CCOc2ccccc2)cc1S(=O)(=O)N1CCOCC1	-15.6
O=C(CN1CCOCC1)NN=C1CCCCCCCCCCC1	-8.88
Cc1cc(C)n(-c2ccc(C(=O)OCC(=O)Nc3ccc([N+](=O)[O-])cc3)cc2)n1	-10.6
O=C(NCc1ccc2c(c1)OCO2)Nc1ccc([N+](=O)[O-])cc1	21.1
O=C(Nc1ccc2c(c1)OCO2)c1cc(-c2cccc(O)c2)on1	-63.1
CCc1c(C)sc(NC(=O)c2ccccc2[N+](=O)[O-])c1C(N)=O	15.3
O=C(O)c1cccc(-n2nc(-c3ccc(Cl)c([N+](=O)[O-])c3)c3ccccc3c2=O)c1	6.68
CSc1ccc(S(=O)(=O)N2CCC(C(=O)NCCCn3ccnc3)CC2)cc1	-4.91
CC(C)(C)C(=O)OCc1nc(-c2ccc3c(c2)OCCO3)cs1	10.8
CN(C)CCCN(C(=O)c1ccco1)c1nc2ccc(Cl)cc2s1.Cl	-73.4
c1ccc(Nc2cccc(Nc3ccccc3)c2)cc1	13.5
O=[N+]([O-])c1ccccc1OCCCNCc1ccccc1	-29.6
CCOC(=O)c1ccc(CC(=O)c2oc3cc(O)ccc3c2C)o1	3.59

SMILES	hERG current change (%, negative = inhibition) at 10uM [%]
COc1cc(C(=O)NCC2(N(C)C)CCCCC2)ccc1OCc1ccccc1	-59.7
CC1=C(Sc2ccccn2)C(=O)NC(C)(C)C1	19.4
COC(=O)CSc1nc2cc3c(cc2cc1C)OCO3	9.15
COc1ccc(C2=NN(C(=O)CSc3cn(C)c4ccccc34)C(c3ccc(OC)cc3)C2)cc1 (stereo not drawn)	8.44
COc1cccc(N2CCN(C(=O)c3ccc(CSc4nc5ccncc5[nH]4)cc3)CC2)c1	-15.4
CC(C)(C)c1ccc(OCc2ccc(C(=O)N/N=C/c3ccc(O)c(O)c3)cc2)cc1	13.2
Cc1cccc(N2CCN(Cc3ccoc3)CC2)c1C	-33.5
O=CN1CCN(C(=O)c2ccccc2Cl)CC1	11.8
C#CCOn1c(-n2nc(C)cc2C)nc2ccccc2c1=O	12.6
O=C1CC(C2CCCO2)C(=O)N1c1cccc(Cl)c1 (stereo not drawn)	17.3
COc1ccc(NCc2nnc(SCC(=O)NCc3ccco3)n2-c2ccccc2OC)cc1	-4.27
COc1ccc2nc(SCC(N)=O)cc(C)c2c1	7.61
O=C(O)C1CCCCC1C(=O)Nc1cccc(C(=O)N2CCCCC2)c1 (stereo not drawn)	7.12
CCOc1ccc(CCNC(=O)c2ccc3ccccc3n2)cc1OCC	-15.7
Cc1cc(Cl)ccc1OCCCC(=O)NCCCn1ccnc1	-68.1
O=C(NCc1ccco1)c1ccc(Br)c(S(=O)(=O)N2CCCCC2)c1	-53
C=CCn1c(SCC(C)=O)nc2sc3c(c2c1=O)CCC3	-2.16
CCN(CC)S(=O)(=O)c1ccc(Cl)c(C(=O)Nc2ccc(Cl)cc2[N+](=O)[O-])c1	-12.6
O=C(O)c1ccc(COc2ccc([N+](=O)[O-])cc2)o1	23.2
Cc1ccc(S(=O)(=O)NC(CC(C)C)C(=O)N2CCCCCCC2)cc1 (stereo not drawn)	-6.51
CCOc1ccc(Br)cc1S(=O)(=O)NC1CCCC1	-0.874
CCn1cc(CNC(=O)c2cc(-c3ccccc3OC)nc3ccccc23)c(C)n1	-19.5
CSc1nc(N2CCN(c3ccccc3)CC2)cc(N2CCN(c3ccccc3)CC2)n1	18.3

SMILES	hERG current change (%, negative = inhibition) at 10uM [%]
CN(C)Cc1c(C(=O)N/N=C/C2CC=CCC2)nnn1-c1nonc1N (stereo not drawn)	-20.6
COC(=O)C1CCN(C(=O)C23CCC(C)(C(=O)O2)C3(C)C)CC1 (stereo not drawn)	10.7
CCN1CCN(C(=O)CS(=O)(=O)Cc2nc(-c3ccc(C)cc3)oc2C)CC1	3.27
CC(OC(=O)CN1C(=O)NC2(CCCC2)C1=O)C(=O)c1ccccc1 (stereo not drawn)	2.22
CCSc1ccc2nnc(-c3cccc(F)c3)n2n1	-33.6
CSc1ccc(S(=O)(=O)N2CCC(C(=O)N3CCOCC3)CC2)cc1	2.57
O=c1oc(-c2ccc(Br)cc2)nc2ccccc12	17.8
CCOC(=O)CSc1nnc2n(C3CCCCC3)c(=O)c3c4c(sc3n12)CCCC4	-3.49
O/N=C1\CC(O)Cc2nonc21 (stereo not drawn)	16.5
CN1CCN(C(=O)CCC(=O)O)CC1	1.33
CN(C)C1=NCCN1CCc1cccc(F)c1	-8.41
Cc1cnc(NC(=O)Nc2ccc(Cl)cc2)s1	6.35
COc1ccc(OC)c(NC(=S)NN2CCN(C)CC2)c1	2.3
CSc1nc(S(=O)(=O)c2ccccc2)c(Cl)s1	15.8
CC(=O)Nc1ccc(NC(=O)C(C)OC(=O)CCC2CCCCC2)cc1 (stereo not drawn)	-0.461
CCOc1ccc(OCCC(=O)OCC(=O)c2c(N)n(C)c(=O)n(C)c2=O)cc1	-23
COc1ccc(C(=O)NN)cc1COc1ccc(Br)cc1	-30.7
COc1ccc(S(=O)(=O)N2CCC(O)(c3ccc(Cl)cc3)CC2)cc1	24.2
CC1CC(C)(C)CC2(C1)NC(=O)N(CC(=O)Nc1ccc(N3CCCCC3)cc1)C2=O (stereo not drawn)	1.47
CCN1CCN(S(=O)(=O)c2ccc(Cl)c(C(=O)Nc3ccc(C(=O)N(CC)CC)cc3)c2)CC1	0.597
O=C(CCNS(=O)(=O)c1ccccc1C(F)(F)F)NNC(=O)C1COc2ccccc2O1 (stereo not drawn)	6.13

Reference: PMC4336329 (PLoS ONE, 2015)
